Measured values reported in patent publication US20220024877A1 (Kansas State University Research Foundation, priority 2018, published 2022).

Tested on: S. aureus strain 1471
Assay: Drop assay against S. aureus strain 1471 with or without copper
Details: 1:2 drug titration starting at 10 μM

CNC(=S)NN=CC=NNC(=S)NC [GTSM, reference compound]
MIC: +50 μM Cu: 0.3 µM (≈ 0.0697 µg/mL)

Values after ≈ are worked out from the molar mass of the structure shown.
